# Experimental data reported in PubChem BioAssay AID504832 (National Center for Advancing Translational Sciences (NCATS), 2011).
# Screen size: about 310,000 compounds; about 18,000 (5.8%) were called active. The inconclusive results got no clear call from the source; some entries with a clear call stand among them for comparison. The call rests on the fitted dose curve; in most records, active means well fitted inhibition curve with a large enough effect; inconclusive means small, poorly fitted or top-dose-only effect, or another doubt; inactive means no such curve, though single readings can be large or run the other way. Potencies of inconclusive entries are left out as doubtful fits.
# Test: Primary qHTS for delayed death inhibitors of the malarial parasite plastid, 48 hour incubation
# Details: P. falciparum luciferase growth in erythrocytes; series mostly up to 28.7 µM; activity change, negative = inhibition: at the top concentration
# In short: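 Parasite viability was followed by luminescence of a genomically integrated firefly luciferase. Cultures held 0.1% parasitemia at 2% hematocrit (final), incubated under 5% CO2 at 37 C.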
# On the % scale 0 is the no-effect control and ±100 the full control effect; potency means the concentration at half of the fitted maximal effect; tags describe the fitted curve by direction and shape.
Compound,"activity change, negative = inhibition",Potency
CCOc1ccccc1-n1c(SCC(=O)N2CCOCC2)nc2ccccc2c1=O,inactive: -17.4%,–
CCCNC(=O)C(Cc1ccccc1)NC(=O)c1ccc(C(C)(C)C)cc1 (stereo not given),–,"inconclusive [inhibitor, partial curve]"
COc1ccc(CN2C(=O)c3cccnc3C2=O)cc1S(=O)(=O)N1CCCCC1C (stereo not given),–,"inconclusive [inhibitor, partial curve, poor fit]"
CSc1ccccc1C(=O)C1CCCN(C(=O)c2ccc(N3CCOCC3)cc2)C1 (stereo not given),inactive: -13.9%,–
CC(C)Cc1nnc(NC(=O)CCc2ccccc2)s1,inactive: -16.9%,–
COCC(=O)N1CCC(Oc2ccc(C(=O)NCc3cc(C)no3)cc2)CC1,inactive: 8.25%,–
COc1cc(/C=N/NC(=O)c2cccc(NC(=O)c3ccccc3)c2)ccc1O,inactive: -10.2%,–
Cn1c(=O)n(-c2ccc(Cl)cc2)c(=O)c2c3c(sc21)COC(C)(C)C3,–,"inconclusive [inhibitor, single point]"
O=[N+]([O-])c1ccc(S(=O)(=O)N/N=C/c2ccsc2)cc1,inactive: 0.0134%,–
CC1(C)c2ssc(=S)c2-c2ccccc2N1C(=O)CSC1=NCCS1,–,"inconclusive [inhibitor, single point]"
CC(=O)Nc1cccc(C(=O)Nc2ccc(S(=O)(=O)N3CCCCC3)cc2)c1,–,"inconclusive [inhibitor, partial curve, poor fit]"
CCc1ccc(CN2CCN(C(=O)c3cccc(OC)c3OC)CC2)cc1,–,"inconclusive [inhibitor, partial curve]"
COc1cccc(CNCCO)c1OCc1ccc(Cl)cc1,inactive: -22.6%,–
CCOc1cccc(CN2CCCC(CNC(=O)c3cccc(OC)c3OC)C2)c1 (stereo not given),–,"inconclusive [inhibitor, single point]"
CCCCCCCC(=O)Nc1cc(C(=O)NCCC)ccc1N1CCC2(CC1)CC(c1ccccc1)=NO2,–,"inconclusive [inhibitor, single point]"
CCn1c(SCC(=O)N2CCC(C)CC2)nc2c(c1=O)SCC2,–,"inconclusive [inhibitor, partial curve]"
COc1ccc(NC(=O)CCn2c(=O)c3cccn3c3ccccc32)cc1,inactive: -10.8%,–
COCCC1CCCCN1C(=O)c1ccc2nc(Cc3ccccc3F)oc2c1 (stereo not given),–,"inconclusive [inhibitor, single point]"
Cc1cc(C)cc(NC(=O)COc2ccc3c(C)c(Cc4ccccc4)c(=O)oc3c2)c1,–,active: 8.28 µM
CCCOC(=O)C1=C(C)NC2=C(C(=O)CC(C)(C)C2)C1c1ccc(N(C)C)cc1 (stereo not given),–,"inconclusive [inhibitor, partial curve, poor fit]"
CCn1c(C(=O)NCCCN2CCc3ccccc3C2)cc2sccc21,–,"inconclusive [inhibitor, partial curve, poor fit]"
O=C(Nc1ccc(/C=C/c2nc3ccccc3o2)cc1)c1ccc(F)cc1,–,"inconclusive [inhibitor, full curve, poor fit]"
CCOc1ccc(C(=O)NCCc2cnc[nH]2)cc1,inactive: 34%,–
O=C(O)c1cc(S(=O)(=O)Nc2cccc3ccccc23)c(Cl)cc1Cl,inactive: 15.2%,–

Compound,"activity change, negative = inhibition",Potency
Cc1cccc(NC(=O)c2cc(Cl)sc2Cl)c1C,inactive: 47.1%,–
CCOC(=O)/C=C(/C)N1N=C(c2ccc(OC)cc2)CC1c1cccc([N+](=O)[O-])c1 (stereo not given),–,"inconclusive [inhibitor, single point]"
CCOC(=O)C1CCCN(CC(=O)Nc2c(C(=O)OC)[nH]c3ccc(Br)cc23)C1 (stereo not given),–,"inconclusive [inhibitor, partial curve, poor fit]"
O=C(Nc1cccc(-c2csc(Nc3ccc(Cl)cc3)n2)c1)c1ccccc1,–,"inconclusive [inhibitor, single point]"
Cc1ccc(CNC(=O)CCSCc2ccc(C)cc2)cc1,inactive: 12.8%,–
O=C(c1ccc(N2CCN(C(=O)c3ccccc3Br)CC2)cc1)c1cccc(F)c1,–,"inconclusive [inhibitor, single point]"
CCc1ccc(C(=O)NNC(=O)CC2OC(=O)c3ccccc32)cc1 (stereo not given),–,"inconclusive [inhibitor, single point]"
Cc1cc(NC(=O)c2cccc(S(=O)(=O)N3c4ccccc4CC3C)c2)no1 (stereo not given),–,active: 3.29 µM
CN1CCN(S(=O)(=O)c2ccc(NC(=O)c3cccc(S(=O)(=O)N4CCCC4)c3)cc2)CC1,–,active: 11.7 µM
N=c1n(Cc2ccc(Cl)cc2)c2ccccc2n1CC(O)COc1ccccc1 (stereo not given),–,"inconclusive [inhibitor, partial curve]"
O=C(C1CCCN(S(=O)(=O)c2cccc3nsnc23)C1)N1CCN(c2ccccn2)CC1 (stereo not given),–,active: 11.7 µM
O=C(OCCN1C(=O)c2ccccc2C1=O)c1ccccc1,inactive: 37.9%,–
CCOC(=O)c1ccc2nc(CCC(=O)N[C@H](C(=O)OC)C(C)C)c(=O)n(CC)c2c1,–,"inconclusive [inhibitor, single point]"
Cc1sc2nc(CN3CCCC3)nc(N3CCN(S(=O)(=O)c4cccc(F)c4)CC3)c2c1C,–,active: 8.28 µM
O=C(NNC1=C(C(=O)C(F)(F)F)CCC1)c1cccc(Cl)c1,inactive: 8.01%,–
Cc1c(NC(=O)CSCc2ccccc2)cccc1C(=O)O,inactive: 60.5%,–
COc1ccc2cc(S(=O)(=O)N3CCCCCC3)ccc2c1,–,"inconclusive [inhibitor, partial curve, poor fit]"
O=C(CCC(=O)N1CCN(c2ccc(F)cc2)CC1)N1CCN(c2ccc(F)cc2)CC1,inactive: -14.3%,–
COc1ccccc1C(=O)NNC(=O)c1cccc(Br)c1,inactive: 166%,–
Cc1cc(Cl)ccc1NC(=S)NC(C)(C)C,–,"inconclusive [inhibitor, partial curve]"
Cn1nnnc1SCCNC(=O)C1CCC(=O)N(Cc2ccc(Cl)cc2)C1 (stereo not given),inactive: 18.3%,–
COc1ccc(/C=N/NC(N)=S)cc1OC(=O)c1cccc2ccccc12,–,"inconclusive [inhibitor, single point]"
O=C(NNS(=O)(=O)c1ccccc1)c1cccc([N+](=O)[O-])c1,–,"inconclusive [inhibitor, single point]"
O=C1O/C(=C\c2ccccc2)c2ccccc21,inactive: 21%,–

Compound,"activity change, negative = inhibition",Potency
COc1ccc(S(=O)(=O)N2CCCCCC2)cc1C(=O)N(C)CC(=O)Nc1cc(C)ccc1C,inactive: -5.33%,–
CCCN(C(=O)CSc1cc(-c2ccccc2)c2ccc(OC)cc2n1)C1CCS(=O)(=O)C1 (stereo not given),–,"inconclusive [inhibitor, single point]"
CCn1c(O)c(/C=C2\C=Nc3ccccc32)sc1=Nc1ccccc1,–,"inconclusive [inhibitor, partial curve, poor fit]"
CCOC(=O)Cc1c(C)[nH]c(=S)[nH]c1=O,–,active: 1.31 µM
OCCNc1nc(-c2ccccc2)nc2c1oc1ccccc12,–,"inconclusive [inhibitor, partial curve]"
C[C@@]12C(=O)Nc3ccc(Br)cc3C(=O)N1[C@H]1c3cc(Cl)ccc3OC[C@@H]1[C@@H]2c1ccccc1,–,active: 3.7 µM
Cc1cc(C)c2c(CN3CCC(C)CC3)cc(=O)oc2c1C,–,"inconclusive [inhibitor, partial curve, poor fit]"
CN(Cc1ccc(Cl)s1)C(=O)CSc1nnc(C2CC2)n1C1CC1,–,"inconclusive [inhibitor, single point]"
CC(=O)N1CCN(C(=O)c2cc(S(=O)(=O)N3CCN(c4ccccc4)CC3)ccc2Cl)CC1,inactive: -15.8%,–
N#Cc1c(N)nc2c(c1N)CC(=O)N2c1ccccc1-c1ccccc1,–,"inconclusive [inhibitor, single point]"
O=C(OCC(O)COC(=O)c1cccnc1)c1cccnc1,–,"inconclusive [inhibitor, partial curve, poor fit]"
CC(C)n1c(=O)c(C=Nc2ccc(Cl)cc2)c(O)n(Cc2ccco2)c1=O,–,active: 10.4 µM
CCOC(=O)c1c(-c2cccc([N+](=O)[O-])c2)csc1NC(=O)CCCOc1ccccc1,–,"inconclusive [inhibitor, partial curve, poor fit]"
COc1ccc(N(C(C)=O)S(=O)(=O)c2cccc3cccnc23)cc1,inactive: -20.2%,–
Cc1cc(OCC(=O)NCC2CCC(C(=O)O)CC2)c2c3c(c(=O)oc2c1)CCC3 (stereo not given),–,"inconclusive [inhibitor, full curve, poor fit]"
CCOC(=O)/C(C(=O)Nc1ccc(Br)cc1)=C1/NC(C)(C)Cc2ccccc21,–,"inconclusive [inhibitor, single point]"
CC(C)(CNC(=O)CO/N=C1/C=C2CCC3C(C(O)C[C@@]4(C)C3CC[C@]4(O)C(=O)CO)[C@@]2(C)CC1)C(O)C(=O)O (stereo not given in full),–,"inconclusive [inhibitor, single point]"
O=C(CCCCCn1c(SCc2ccncc2)nc2ccccc2c1=O)NCc1ccco1,–,active: 8.28 µM
O=C(CCNS(=O)(=O)c1ccccc1)N1CCN(C(c2ccccc2)c2ccccc2)CC1,–,"inconclusive [inhibitor, partial curve, poor fit]"
Cc1ccnc(NC(=O)CC(c2ccccc2)c2ccccc2)n1,–,"inconclusive [inhibitor, partial curve]"
CCCCn1c(N)c(N(CCOC)C(=O)Cn2c(=O)cnc3ccccc32)c(=O)[nH]c1=O,inactive: -17.7%,–
COc1ccccc1N1CCN(C(=O)C2C3C=CC4(CN(Cc5ccccc5Cl)C(=O)C24)O3)CC1 (stereo not given),–,"inconclusive [inhibitor, partial curve, poor fit]"
